Measured values reported in the supplement of paper PMC4967469.
The IC50 comes from the fitted curve, where viability falls to half of the control; a limit (>, <) means that the fit lies beyond the doses tested. AUC sums up the same curve from the lowest dose to the 256-fold higher top dose; it is 1 without any effect and falls as sensitivity rises. For part of these data: The top dose, if marked as inferred, is not printed in the source and was worked back from the curve model. For part of these data: Where an entry number is given, a second screen of the drug exists; the two often differ.

What was measured:
Experiment in all cases: Viability of human cancer cell lines after 72 h of drug (GDSC screen)
JNJ-26854165 = compound: c1ccc2c(CCNc3ccc(Nc4ccncc4)cc3)c[nH]c2c1 [JNJ-26854165]; settings: top dose 10 µM
Description: (§1)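 Human cancer cell lines in 384-well plates, medium with 10% serum, drug for 72 h over a 256-fold dose range (nine 2-fold or five 4-fold steps up to the top dose). Adherent lines were fixed and stained with the nucleic acid dye Syto60, suspension lines read with resazurin; signal relative to control wells, capped at 0 and 100%. One two-parameter sigmoid per drug and line, fitted in a mixed model over all curves with the slope shared within a line.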

SB-715992 = compound: Cc1ccc(C(=O)N(CCCN)[C@@H](c2nc3cc(Cl)ccc3c(=O)n2Cc2ccccc2)C(C)C)cc1 [SB-715992]; settings: top dose 0.128 µM; top dose inferred
Description: as §1

Belinostat = compound: O=C(/C=C/c1cccc(S(=O)(=O)Nc2ccccc2)c1)NO [Belinostat]; settings: top dose 20 µM; top dose inferred
Description: as §1

YM155 = compound: COCC[n+]1c2c(n(Cc3cnccn3)c1C)C(=O)c1ccccc1C2=O [YM155]; settings: top dose 5.12 µM
Description: as §1

AMG-706 = compound: CC1(C)CNc2cc(NC(=O)c3cccnc3NCc3ccncc3)ccc21 [AMG-706]; settings: top dose 2 µM; top dose inferred
Description: as §1

JNK Inhibitor VIII = compound: CCOc1nc(NC(=O)Cc2cc(OC)ccc2OC)cc(N)c1C#N [JNK Inhibitor VIII]; settings: top dose 10 µM; top dose inferred
Description: as §1

FTI-277 = compound: COC(=O)[C@H](CCSC)NC(=O)c1ccc(NC[C@@H](N)CS)cc1-c1ccccc1 [FTI-277]; settings: top dose 1.024 µM; top dose inferred
Description: as §1

NSC-207895 = compound: CN1CCN(c2ccc([N+](=O)[O-])c3no[n+]([O-])c23)CC1 [NSC-207895]; settings: top dose 20 µM; top dose inferred
Description: as §1

OSI-906 = compound: C[C@]1(O)C[C@@H](c2nc(-c3ccc4ccc(-c5ccccc5)nc4c3)c3c(N)nccn32)C1 [OSI-906]; settings: top dose 2.56 µM; top dose inferred
Description: as §1

JQ1 = compound: Cc1sc2c(c1C)C(c1ccc(Cl)cc1)=N[C@@H](CC(=O)OC(C)(C)C)c1nnc(C)n1-2 [JQ1]
Description: as §1

[1] = top dose 1 µM, screen: GDSC drug entry 1218, top dose inferred
[2] = top dose 2.56 µM, screen: GDSC drug entry 163

Cell Line	AUC (JNJ-26854165)	IC50 (JNJ-26854165) [µM]	AUC (SB-715992)	IC50 (SB-715992) [µM]	AUC (Belinostat)	IC50 (Belinostat) [µM]	AUC (YM155)	IC50 (YM155) [µM]	AUC (AMG-706)	IC50 (AMG-706) [µM]	AUC (JNK Inhibitor VIII)	IC50 (JNK Inhibitor VIII) [µM]	AUC (FTI-277)	IC50 (FTI-277) [µM]	AUC (NSC-207895)	IC50 (NSC-207895) [µM]	AUC (OSI-906)	IC50 (OSI-906) [µM]	AUC (JQ1; [1])	IC50 (JQ1; [1]) [µM]	AUC (JQ1; [2])	IC50 (JQ1; [2]) [µM]
NCI-H522 (lung adenocarcinoma, adherent)	0.936	> 10	0.742	0.0457	0.327	0.374	0.221	0.0409	0.982	> 2	0.975	> 10	0.972	> 1.02	0.984	> 20	0.874	> 2.56	–	–	–	–
MDA-MB-415 (breast, adherent)	–	–	0.896	> 0.128	0.867	> 20	0.285	0.0632	0.948	> 2	0.962	> 10	0.975	> 1.02	0.982	> 20	0.978	> 2.56	0.964	> 1	0.826	2.31
MDA-MB-231 (breast, adherent)	0.772	4.1	0.905	> 0.128	–	–	0.041	< 0.02	0.986	> 2	0.984	> 10	0.978	> 1.02	0.959	> 20	0.956	> 2.56	–	–	–	–
OACp4C (oesophagus, adherent)	0.845	9.52	0.847	0.125	0.195	0.124	0.048	< 0.02	0.947	> 2	0.974	> 10	–	–	0.847	19.5	–	–	0.961	> 1	–	–
NCI-H460 (large cell lung carcinoma, adherent)	0.896	> 10	0.99	> 0.128	0.896	> 20	0.489	0.299	0.99	> 2	0.99	> 10	0.967	> 1.02	0.99	> 20	0.988	> 2.56	–	–	–	–
T47D (breast, adherent)	0.836	> 10	0.849	> 0.128	0.331	0.327	0.348	0.0969	0.962	> 2	0.969	> 10	0.965	> 1.02	0.893	> 20	0.962	> 2.56	–	–	–	–
MDA-MB-436 (breast, adherent)	0.87	> 10	0.958	> 0.128	0.716	6.07	0.18	0.0256	0.974	> 2	0.976	> 10	0.932	> 1.02	0.933	> 20	0.978	> 2.56	–	–	–	–
MDA-MB-453 (breast, adherent)	–	–	0.765	0.0519	0.134	< 0.0781	0.037	< 0.02	0.978	> 2	0.974	> 10	0.964	> 1.02	0.966	> 20	0.983	> 2.56	0.984	> 1	0.666	0.49
HeLa (cervix, adherent)	0.927	> 10	0.872	0.113	–	–	0.262	0.0694	0.964	> 2	0.984	> 10	0.986	> 1.02	0.982	> 20	0.955	> 2.56	–	–	–	–
PC-3 (prostate, adherent)	0.928	> 10	–	–	0.476	1.06	0.035	< 0.02	0.924	> 2	0.919	> 10	0.983	> 1.02	0.617	2.82	0.98	> 2.56	–	–	–	–
EMC-BAC-2 (lung adenocarcinoma, adherent)	0.908	> 10	0.742	0.0455	0.41	0.674	0.037	< 0.02	0.914	> 2	0.914	> 10	–	–	0.784	10.2	–	–	0.959	> 1	–	–
JHU-029 (head and neck, adherent)	0.807	6.62	–	–	–	–	–	–	0.966	> 2	0.969	> 10	0.905	> 1.02	–	–	0.9	> 2.56	0.977	> 1	0.707	0.709
U031 (kidney, adherent)	0.781	4.29	0.927	> 0.128	0.586	2.17	–	–	0.984	> 2	0.974	> 10	0.961	> 1.02	0.981	> 20	0.941	> 2.56	0.942	> 1	0.504	0.164
KP-1N (pancreas, adherent)	0.912	> 10	0.444	0.0056	–	–	–	–	0.971	> 2	0.964	> 10	0.964	> 1.02	–	–	0.9	> 2.56	0.943	> 1	0.791	1.21
PC-3 [JPC-3] (lung adenocarcinoma, adherent)	0.932	> 10	0.762	0.0604	0.569	2.06	–	–	0.95	> 2	0.973	> 10	0.975	> 1.02	0.89	> 20	0.952	> 2.56	0.964	> 1	0.872	> 2.56
PA-TU-8902 (pancreas, adherent)	0.867	> 10	0.932	> 0.128	–	–	0.043	< 0.02	0.979	> 2	0.983	> 10	0.969	> 1.02	0.962	> 20	0.79	1.36	0.981	> 1	0.898	> 2.56

Cell Line	AUC (JNJ-26854165)	IC50 (JNJ-26854165) [µM]	AUC (SB-715992)	IC50 (SB-715992) [µM]	AUC (Belinostat)	IC50 (Belinostat) [µM]	AUC (YM155)	IC50 (YM155) [µM]	AUC (AMG-706)	IC50 (AMG-706) [µM]	AUC (JNK Inhibitor VIII)	IC50 (JNK Inhibitor VIII) [µM]	AUC (FTI-277)	IC50 (FTI-277) [µM]	AUC (NSC-207895)	IC50 (NSC-207895) [µM]	AUC (OSI-906)	IC50 (OSI-906) [µM]	AUC (JQ1; [1])	IC50 (JQ1; [1]) [µM]	AUC (JQ1; [2])	IC50 (JQ1; [2]) [µM]
SK-MEL-28 (melanoma, adherent)	0.869	8.89	0.975	> 0.128	0.631	2.86	0.069	< 0.02	0.97	> 2	0.988	> 10	0.987	> 1.02	0.904	> 20	0.965	> 2.56	–	–	–	–
SiHa (cervix, adherent)	–	–	0.981	> 0.128	0.944	> 20	0.831	3.94	0.954	> 2	0.984	> 10	0.986	> 1.02	0.985	> 20	0.964	> 2.56	0.802	0.582	0.87	> 2.56
SU-DHL-10 (B-cell lymphoma, suspension)	0.905	6.39	0.407	0.00477	0.005	< 0.0781	0.005	< 0.02	0.998	> 2	0.998	> 10	0.997	> 1.02	0.969	> 20	–	–	0.998	> 1	0.184	0.0273
YH-13 (glioma, adherent)	0.888	> 10	0.773	0.0528	0.567	1.92	0.265	0.0655	0.857	1.77	0.955	> 10	–	–	0.985	> 20	–	–	0.985	> 1	–	–
CHP-134 (neuroblastoma, suspension)	–	–	0.607	0.017	0.293	0.274	0.061	< 0.02	0.924	> 2	0.948	> 10	–	–	0.824	16.5	–	–	–	–	–	–
DU-145 (prostate, adherent)	0.889	> 10	0.955	> 0.128	0.353	0.467	0.037	< 0.02	0.713	0.54	0.898	> 10	0.948	> 1.02	0.782	9.38	0.975	> 2.56	–	–	–	–
HCC-827 (lung adenocarcinoma, adherent)	0.889	> 10	0.972	> 0.128	0.495	1.21	0.25	0.054	0.858	> 2	0.976	> 10	0.975	> 1.02	0.984	> 20	–	–	–	–	–	–
HCC-366 (non-small cell lung carcinoma, adherent)	0.913	> 10	–	–	–	–	–	–	0.988	> 2	0.988	> 10	–	–	–	–	–	–	0.979	> 1	–	–
A673 (rhabdomyosarcoma, adherent)	0.943	> 10	0.606	0.0151	0.467	1.03	0.024	< 0.02	0.953	> 2	0.986	> 10	0.99	> 1.02	0.74	5.56	–	–	0.986	> 1	0.967	> 2.56
HCT-116 (large intestine, adherent)	0.883	9.73	–	–	–	–	0.022	< 0.02	0.987	> 2	0.987	> 10	0.965	> 1.02	0.976	> 20	0.981	> 2.56	–	–	–	–
HT-29 (large intestine, adherent)	0.933	> 10	0.725	0.0348	0.374	0.562	0.067	< 0.02	0.988	> 2	0.988	> 10	0.922	> 1.02	0.975	> 20	–	–	0.986	> 1	0.511	0.171
PFSK-1 (medulloblastoma, adherent)	–	–	0.727	0.0371	0.676	4	0.033	< 0.02	0.873	> 2	0.888	> 10	0.979	> 1.02	0.962	> 20	0.932	> 2.56	–	–	0.949	> 2.56
DOK (head and neck, adherent)	0.777	6.29	0.957	> 0.128	–	–	–	–	0.974	> 2	0.97	> 10	0.918	> 1.02	0.976	> 20	0.575	0.285	0.968	> 1	0.762	1.39
NCI-H2066 (small cell lung carcinoma, adherent)	0.95	> 10	–	–	–	–	–	–	0.939	> 2	0.975	> 10	–	–	–	–	–	–	0.956	> 1	–	–
PWR-1E (prostate, adherent)	0.916	> 10	–	–	–	–	–	–	0.971	> 2	0.984	> 10	–	–	–	–	–	–	0.986	> 1	–	–
